Laboratory results taken from PubChem BioAssay AID485281 (National Center for Advancing Translational Sciences (NCATS), 2010).
Among all 350,000 compounds or so, about 260 (0.074%) were called active. Inconclusive results, whose numbers are uncertain, are shown with a selection of clear calls. Calls follow the shape of the dose curve; as a rule, active = well fitted inhibition curve with a large enough effect; inconclusive = small, poorly fitted or top-dose-only effect; inactive = no such curve, though single readings can be large or run the other way. A potency beside an inconclusive call is a rough fit, not a confirmed value.

Biological target: Ferritin light chain (Equus caballus) (UniProt P02791)
Sequence of UniProt P02791 (P02791 whole entry, looked up): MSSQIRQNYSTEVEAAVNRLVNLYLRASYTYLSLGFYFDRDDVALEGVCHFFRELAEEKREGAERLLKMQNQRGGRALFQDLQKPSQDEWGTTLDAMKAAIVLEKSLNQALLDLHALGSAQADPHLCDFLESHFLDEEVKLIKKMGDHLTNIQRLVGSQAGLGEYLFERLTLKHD
Assay: qHTS Assay for Identification of Novel General Anesthetics; also: nearly all actives have a fitted effect of over 20% in size
Conditions: apoferritin/1-aminoanthracene competitive binding, fluorescence; activity change, negative = displacement: at 77.5 µM (top of the series)
How it was run: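 Probe: 1-aminoanthracene (50% saturated, PBS). Protein: horse-spleen apoferritin, 10 uM. Incubation: 10 min, room temperature. Detection: 380 nm excitation, 535 nm emission. Analysis: normalized response, four-parameter Hill.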
% is scaled to controls: 0 for no effect and ±100 for the full control effect; potency is read from the fitted curve at half-maximal effect; tags tell the direction and shape of the fitted curve.

Potency, inconclusive:
Cc1ccc(N=C2NC(=O)S/C2=C\c2ccco2)cc1 25.1 µM [inhibitor, partial curve], O=C(NCCc1ccccc1)c1cnc2sc(N3CCOCC3)nn2c1=O 22.4 µM [inhibitor, partial curve], CC1CC(OC(=O)C(O)c2ccccc2)CC(C)(C)C1 (stereo not drawn) 28.2 µM [inhibitor, partial curve], CCOC(=O)C(CCCCOc1ccc([N+](=O)[O-])cc1)C(=O)OCC 35.5 µM [inhibitor, partial curve], CC(C)C(C(=O)Nc1nccs1)c1ccccc1 (stereo not drawn) 22.4 µM [inhibitor, partial curve], O=C(Cn1c(C(=O)N2CCN(C3CCCCC3)CC2)cc2sccc21)c1ccccc1 39.8 µM [inhibitor, partial curve], Oc1cccc(NC(=S)N=Nc2c(O)[nH]c3ccccc23)c1 14.1 µM [inhibitor, partial curve], CCc1ccc(NC(=O)N2CCCCCC2)cc1 12.6 µM [inhibitor, partial curve], Cc1ccccc1OCC(=O)Nc1ccc(S(=O)(=O)N2CCOCC2)cc1 28.2 µM [inhibitor, partial curve], CCn1c(SCC(=O)N2CCOCC2)nc2oc3c(Cl)cc(Cl)cc3c(=O)c2c1=O 12.6 µM [inhibitor, partial curve], CCc1ccccc1Nc1nc2ccccc2n1C 17.8 µM [inhibitor, partial curve], Cc1nc(CS(=O)c2ccc(Cl)cc2)cc(NCc2ccc(Cl)cc2Cl)n1 (stereo not drawn) 35.5 µM [inhibitor, partial curve], Cc1ccc2c(c1)N(Cc1cccc(F)c1)C(=O)C(C)O2 (stereo not drawn) 35.5 µM [inhibitor, single point], CC1CCc2cc(F)ccc2N1C(=O)CSc1nnc2c(n1)[nH]c1ccc(F)cc12 (stereo not drawn) 2.82 µM [inhibitor, full curve, poor fit], O=C1CCC(=O)N1c1ccc(NCCc2ccccc2F)c([N+](=O)[O-])c1 3.55 µM [inhibitor, full curve, poor fit], O=C(Nc1nc(-c2ccc(Cl)s2)cs1)c1ccco1 20 µM [inhibitor, partial curve], COC(=O)c1ccc(COc2ccccc2/C=N/NC(=O)c2cccnc2)cc1 44.7 µM [inhibitor, single point], CCN(C(=O)c1cc2c(Cl)nc3ccc(C)cc3c2s1)c1cc(OC)ccc1OC 5.62 µM [inhibitor, partial curve], CCN(C(=O)/C=C/c1ccc(OC)cc1)C1CCCCC1 25.1 µM [inhibitor, single point], COc1ccccc1NS(=O)(=O)c1cc(NC(=O)C2CC2)ccc1N1CCOCC1 10 µM [inhibitor, full curve, poor fit], COc1cc(CNCCSc2nnnn2C)ccc1OCc1c(F)cccc1Cl 14.1 µM [inhibitor, partial curve], Cc1cccc(NC(=O)Cn2nc(-c3cccs3)ccc2=O)c1C 28.2 µM [inhibitor, partial curve], CCOC(=O)c1[nH]c(C)c(C(=O)NCc2ccc(F)cc2)c1C 31.6 µM [inhibitor, single point], c1ccc(Cc2ccc(OCCN3CCOCC3)cc2)cc1 10 µM [inhibitor, partial curve], CCCCCCNC(=O)Nc1ccccc1 8.91 µM [inhibitor, partial curve], CCOc1ccccc1N(CC(=O)NC1CCCCC1)C(=O)c1nsc(Cl)c1Cl 39.8 µM [inhibitor, partial curve], NNC(=O)c1cc(C23CC4CC(CC(C4)C2)C3)[nH]n1 14.1 µM [inhibitor, partial curve], Oc1cccc(C(=S)N2CCC(Cc3ccccc3)CC2)c1 28.2 µM [inhibitor, partial curve], N#C/C(=N\Nc1cccc(Cl)c1)C(=O)c1ccccc1 31.6 µM [inhibitor, partial curve], Cc1ccc(C(CC(=O)N2CCCC2)c2ccccc2)c(O)c1C (stereo not drawn) 22.4 µM [inhibitor, partial curve], CCN(CC)c1ccc(C2C3CCCCC3(O)CCN2CC(=O)Nc2ccccc2)cc1 (stereo not drawn) 5.01 µM [inhibitor, full curve], O=C(C1CCCCC1)N1CCN=C1SCc1cccc([N+](=O)[O-])c1 28.2 µM [inhibitor, partial curve], Cc1cc(NC(=O)CN2C(=O)CC(c3ccco3)Sc3ccccc32)no1 (stereo not drawn) 17.8 µM [inhibitor, partial curve], COc1ccc(NC(=S)NC(NC(=O)c2cccc3ccccc23)C(Cl)(Cl)Cl)c([N+](=O)[O-])c1 (stereo not drawn) 20 µM [inhibitor, partial curve], CC(=O)c1cccc(NC(=O)CN2CCc3cc4c(cc3C2)OCCCO4)c1 39.8 µM [inhibitor, single point], O=C(c1cnn(C(=O)c2cccc(S(=O)(=O)N3CCOCC3)c2)c1)c1ccccc1O 35.5 µM [inhibitor, single point], CCCCn1c(N)c(N(CCOC)C(=O)CN(C)S(=O)(=O)c2ccc(Cl)cc2)c(=O)[nH]c1=O 14.1 µM [inhibitor, partial curve], COc1ccccc1CNC(=O)c1cc(-c2ccccc2)n[nH]1 11.2 µM [inhibitor, partial curve], CCc1cccc(C)c1N(C(=O)Cn1c(=O)[nH]c2ccccc21)C(C)COC (stereo not drawn) 28.2 µM [inhibitor, partial curve], CCO[C@@H]1OC(C(=O)NCc2nc3ccccc3[nH]2)=C[C@H](C2CCCCC2)[C@H]1CCCO 35.5 µM [inhibitor, partial curve], CCC(C)c1ccc(OCC(=O)Nc2ccc(Cl)cn2)cc1 (stereo not drawn) 12.6 µM [inhibitor, partial curve], Cc1ccccc1NC1=C/C(=N\S(=O)(=O)c2cccs2)c2ccccc2C1=O 20 µM [inhibitor, partial curve], CCc1ccc(S(=O)(=O)c2cnc(SCC(=O)Nc3ccc(OC)cc3OC)[nH]c2=O)cc1 4.47 µM [inhibitor, full curve], CC(Sc1ccccc1)C(=O)Nc1cccc(N(C)S(C)(=O)=O)c1 (stereo not drawn) 17.8 µM [inhibitor, partial curve], CC(C)NC(=O)c1sc2ncccc2c1-n1cccc1 25.1 µM [inhibitor, partial curve], O=C(CSc1nnc(COc2ccc(Cl)cc2Cl)o1)Nc1ccccn1 3.55 µM [inhibitor, partial curve], COc1ccc(CC(=O)Nc2nnc(C(C)(C)C)s2)cc1OC 35.5 µM [inhibitor, single point], O=Cc1cc(N=Nc2ccccc2Cl)ccc1O 15.8 µM [inhibitor, partial curve], CC1=NN(C(=O)c2ccc(C)cc2)C(O)(C(F)(F)OC(F)(F)F)C1 (stereo not drawn) 44.7 µM [inhibitor, single point], Brc1ccc(COn2ccnc2)cc1 25.1 µM [inhibitor, partial curve], CCc1ccc(N2C(=O)C3ON(c4ccccc4)C(c4ccco4)C3C2=O)cc1 (stereo not drawn) 7.94 µM [inhibitor, full curve, poor fit], CCc1cc2c(Sc3nc4ccccc4s3)ncnc2s1 17.8 µM [inhibitor, partial curve], O=C(COc1ccc(S(=O)(=O)NC2CCCCC2)cc1Cl)N1CCN(c2ccccc2)CC1 11.2 µM [inhibitor, single point]

Potency, inactive:
O=C(O)c1cccnc1Nc1cccc(C(F)(F)F)c1

Activity change, negative = displacement, inactive:
C=CCNC(=O)CC(=O)N/N=C/c1ccc(C(=O)OC)cc1 -3.88%, COc1cc2c(c(O)c1OC)C(=O)C(OC)CCC2 (stereo not drawn) -8.48%, COCC(C)NC(=O)c1ccccc1OC(C)=O (stereo not drawn) 4.25%, Cc1ccc2nc(N3CCC(C(=O)O)CC3)nc(-c3ccccc3)c2c1 227%, c1ccc(-c2nc(NCc3ccco3)c3oc4ccccc4c3n2)cc1 -11%, O=C(Nc1ccccc1C(=O)O)c1cccc(NC(=O)c2ccccc2Br)c1 -2.13%, COc1cccc(-c2nc(-c3ccccn3)no2)c1OC -2.75%, O=C(CCCCCn1c(=O)[nH]c2ccsc2c1=O)N1CCCCC1 -6.03%, O=C(NCCCN1CCN(c2cccc(Cl)c2)CC1)c1nnc(Cc2ccc(F)cc2Cl)o1 -1.63%, O=C(COc1ccc(Cl)cc1Cl)c1ccc[nH]1 -14.7%, O=C(NCC1CC1)[C@H]1C[C@@H]1[C@H](NP(=O)(c1ccccc1)c1ccccc1)c1ccccc1 7%, CCOC(=O)N/N=C/c1cn(CCCOc2ccccc2)c2ccccc12 -2.78%, COc1ccc(CC2(CO)CCN(Cc3nc(C(C)C)cs3)CC2)cc1 -13.1%, COc1ccc(CCNC(=O)CCCn2c(=O)c3cccn3c3ccc(F)cc32)cc1OC -4.12%
